Measured values from PubChem BioAssay AID504706 (National Center for Advancing Translational Sciences (NCATS), 2011).
Screen size: about 320,000 compounds; about 200 (0.062%) were called active. Inconclusive means that the source gave no clear call. Such entries were picked first, then a sample of the others. The call rests on the fitted dose curve; in most records, active means well fitted activation curve with a large enough effect; inconclusive means small, poorly fitted or top-dose-only effect; inactive means no such curve, though single readings can be large or run the other way. Potencies of inconclusive entries are left out as doubtful fits.

Test: qHTS assay for re-activators of p53 using a Luc reporter; further: nearly all actives have a fitted effect of over 45% in size
Conditions: H1299 p53-A138V BP100-luciferase reporter, luminescence, 24 h; series mostly up to 92.2 µM
Method in brief: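 p53-null H1299 cells stably carrying temperature-sensitive p53-A138V and a BP100-luciferase reporter were pinned with compounds (4-point, 1:5 series) and held 24 hrs at 37 deg C. Luminescence was read 10 min after detection reagent.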
Potency means the concentration at half of the fitted maximal effect; tags describe the fitted curve by direction and shape.

Structure (SMILES)	Potency
CCc1c(C(=O)NNC(=O)Nc2ccc3c(c2)OCO3)csc1C	inactive
CCNC(=S)Nc1cc(OCC)c(NC(=O)c2cccs2)cc1OCC	inactive
Cc1ccc(-c2cc(C(=O)Nc3cccnc3)[nH]n2)c(O)c1C	inconclusive [activator, full curve, poor fit]
COc1cc(-n2nc(C)c3c2OC(N)=C(C#N)C3c2ccccc2)c(Cl)c(Br)c1O (stereo not drawn)	inconclusive [activator, single point]
Cn1cc(/C=N/NC(=O)COc2ccccc2[N+](=O)[O-])c2ccccc21	inconclusive [activator, single point]
CC(C)C(=O)NC(=S)/C=C1/N(C)c2ccccc2C1(C)C	inactive
O=C(CSc1ncn[nH]1)c1ccc2c(c1)OCCO2	inactive
CCOc1ccc(NC(=O)c2ccccc2CO)cc1	inconclusive [activator, full curve, poor fit]
CCN(C(=O)COC(=O)c1cc(NS(=O)(=O)c2ccc(Cl)c([N+](=O)[O-])c2)ccc1O)C1CCCCC1	inconclusive [activator, single point]
CC(C)c1ccc(NC(=O)COC(=O)CC2CCCC2)cc1	inactive
Cc1ccccc1NCc1ccc(O)c2ncccc12	inactive
Cc1nc2ccc(NS(=O)(=O)c3ccc(F)cc3F)cc2s1	inactive
Cn1c(SCC(=O)c2ccc(F)cc2)nnc1-c1ccccc1N	inconclusive [activator, partial curve, poor fit]
O=C(Nc1ccccc1)C(=O)Nc1ccccn1	inactive
C=CCOC(=O)C1=C(C)NC(SCC(=O)Nc2ccc(C)c(Cl)c2)=C(C#N)C1c1ccco1 (stereo not drawn)	inactive
C/C(=N\NC(=O)c1n[nH]c2c1CCC2)c1cccs1	inactive
Cc1cc(=O)oc2c(C)c3occc3cc12	inconclusive [activator, single point]
Cc1nc2cc(NCc3nc4ccccc4n3Cc3ccccc3)ccc2n1C	inconclusive [activator, partial curve, poor fit]
COc1ncccc1C(=O)N1CCC(n2nccc2NC(=O)CC(C)C)CC1	inconclusive [activator, single point]
O=C(CCc1nnc(-c2ccccc2)o1)NC1CCCCC1	inconclusive [activator, full curve, poor fit]
COc1ccc(C(=O)Nc2ccccc2C(=O)Nc2ccc(C(=O)O)cc2)cc1	inconclusive [activator, partial curve, poor fit]
CC1=C(C(=O)Nc2ccc(C(=O)N3CCN(c4cccc(Cl)c4)CC3)cc2)SCCO1	inactive
Cc1nsc2nc3c(F)c(F)c(F)c(F)c3cc12	inconclusive [activator, full curve, poor fit]

Structure (SMILES)	Potency
Cc1ccc(C)c(NC(=O)CN(C)C(=O)c2ccc3[nH]c4c(c3c2)CC(C)CC4)c1 (stereo not drawn)	inactive
Cc1ccc(-c2nnc(SCC(=O)N(CC(C)C)c3c(N)n(Cc4ccccc4)c(=O)[nH]c3=O)n2N)cc1	inconclusive [activator, single point]
CCN(C(=O)CSc1nc(-c2ccccc2)c(-c2ccccc2)[nH]1)C1CCS(=O)(=O)C1 (stereo not drawn)	inactive
CC(C)(C)NC(=O)c1cccc(NC(=O)c2cccc(O)c2)c1	inconclusive [activator, single point]
S=C(Nc1ccc2cn[nH]c2c1)Nc1ccccc1Cl	inconclusive [activator, partial curve, poor fit]
C/C(CC(=O)Nc1ccc(Br)cc1)=N\NC(=O)c1cccc(O)c1	inconclusive [activator, partial curve, poor fit]
CN(C)CCCN(C(=O)CCc1ccccc1)c1nc2ccc(Br)cc2s1	inactive
O=C(Nc1cccc(-c2cn3cccnc3n2)c1)c1ccco1	inactive
Cc1ccc(S(=O)(=O)N(C(=O)c2ccncc2)c2ccc(OC(=O)c3ccncc3)c3ccccc23)cc1	inactive
Cc1cccc(Nc2ccc([N+](=O)[O-])cn2)c1	inconclusive [activator, partial curve, poor fit]
CC(=O)c1cccc(NC(=O)c2cc(-c3cccs3)on2)c1	inconclusive [activator, partial curve, poor fit]
Cc1nc2ccccc2c(=O)n1/N=C/c1cccs1	inactive
C/C(=N/NC(=O)c1ccoc1C)c1ccc(N2CCOCC2)cc1	inconclusive [activator, partial curve, poor fit]
COc1ccc(C2CC(=O)n3c(nc4ccccc43)S2)cc1OC (stereo not drawn)	inconclusive [activator, partial curve, poor fit]
COc1ccc2cc(CCNC(=O)CC(C)(C)C)c(=O)[nH]c2c1	inactive
Cc1ccc(S(=O)(=O)N(C)c2c(C)ccc(S(=O)(=O)NC(C)(C)C)c2C)cc1	inactive
CC1CCN(C(=O)CSc2nnc(Cc3cccn3C)n2CCc2ccccc2)CC1	inconclusive [activator, single point]
O=C(/C=C/c1ccco1)NC(=S)Nc1cc(-c2nc3ccccc3s2)ccc1Cl	inconclusive [activator, full curve, poor fit]
COc1ccccc1CNC(=O)COC(=O)/C=C/c1ccc2ccccc2n1	inconclusive [activator, single point]
Cn1c(/C=C/c2ccccc2)nc2ccccc2c1=O	inconclusive [activator, single point]
COc1ccccc1N1CCN(Cc2ccc(O)c3ncccc23)CC1	inconclusive [activator, partial curve, poor fit]
O=C(NCCN1C(=O)S/C(=C\c2ccccc2F)C1=O)C1=COCCO1	inconclusive [activator, single point]
CN(Cc1ccco1)C(=O)c1ccc(S(=O)(=O)N2CCCCCC2)cc1	inconclusive [activator, partial curve, poor fit]

Structure (SMILES)	Potency
O=C(Nc1nnc(S(=O)(=O)N2CCCCCC2)s1)c1ccccc1	inconclusive [activator, full curve, poor fit]
CCOC(=O)c1cccc(C2=CC(=O)C[C@H](c3ccc(OC)cc3)C2)c1	active: 12.6 µM
CN(Cc1ccco1)S(=O)(=O)c1nnc(NC(=O)c2ccccc2)s1	inconclusive [activator, partial curve, poor fit]
C/C(=N\NC(=O)c1ccc2c(c1)OCO2)c1ccc2c(c1)OCO2	inconclusive [activator, full curve]
CCN(CC)C(=O)COc1ccc(-c2ccccc2)cc1	inconclusive [activator, partial curve, poor fit]
O=C(Nc1ccc(C(F)(F)F)cc1)C1CCCCN1S(=O)(=O)c1ccccc1 (stereo not drawn)	inconclusive [activator, partial curve, poor fit]
COC(=O)[C@@]1(Cc2ccc(OC)cc2)[C@@H]2C(=CC(=O)[C@H]2CC(=O)C(=O)N2CCCC2)CN1C(=O)c1ccccc1	inactive
CC(=O)Nc1ccc2nc(NC(=O)c3ccc([N+](=O)[O-])o3)sc2c1	inconclusive [activator, partial curve, poor fit]
CCN(CC)CCCN(Cc1cc2cc3c(cc2[nH]c1=O)OCO3)C(=S)NC	inconclusive [activator, partial curve, poor fit]
CCOC(=O)c1cc2n(c1C)-c1ccccc1C2=O	inconclusive [activator, partial curve, poor fit]
Cc1[nH]c2ccccc2c1C(=O)CSc1nc2ccccc2c(=O)n1CCCN1CCOCC1	inactive
CCOC(=O)C1CCN(c2nnc(N3CCCC3=O)s2)CC1	inconclusive [activator, partial curve, poor fit]
Cc1ccc2nc(SCC(=O)NCCc3ccccc3)nc(=O)n2c1	inactive
O=C1N/C(=C\c2ccccc2)C(O)=C1C=NCc1ccccc1	inconclusive [activator, partial curve, poor fit]
Cc1ccc(C(=O)CNc2ccc(F)cc2)cc1	inconclusive [activator, partial curve, poor fit]
O=C1NC2(Nc3ccccc31)C(=O)Nc1ccccc12 (stereo not drawn)	inconclusive [activator, full curve]
COC(=O)C(Cc1ccccc1)NC(=O)CCCC(=O)NCc1cccc(OC)c1 (stereo not drawn)	inconclusive [activator, partial curve, poor fit]
O=C1NN(c2ccccc2)C(=O)/C1=C/c1coc2ccccc2c1=O	inconclusive [activator, partial curve, poor fit]
Cc1ccc(-n2cc(CNCC3CC(=O)N(C4CC4)C3)c(-c3cccc(C)c3)n2)cc1 (stereo not drawn)	inactive
COc1cccc(-c2noc(-c3ccc4c(c3)OCO4)n2)c1	inconclusive [activator, partial curve, poor fit]
Cc1ccc(S(=O)(=O)N2[C@@H](c3ccccc3F)C(C(=O)O)=CC[C@H]2c2cccc(C)c2)cc1	inconclusive [activator, single point]
COc1ccc(C)cc1NC(=O)COC(=O)c1ccc2ccccc2n1	inactive
